# Assay results from the supplement of paper PMC3334620.
# The full ranking holds about 33,000 sequences; the median of “E-score (-0.5 to 0.5)” is about -0.035, and the highest 2% start at about 0.34. The list shows a part of the results.
# Target: T1, Mot3 (UniProt P54785)
# T1 sequence: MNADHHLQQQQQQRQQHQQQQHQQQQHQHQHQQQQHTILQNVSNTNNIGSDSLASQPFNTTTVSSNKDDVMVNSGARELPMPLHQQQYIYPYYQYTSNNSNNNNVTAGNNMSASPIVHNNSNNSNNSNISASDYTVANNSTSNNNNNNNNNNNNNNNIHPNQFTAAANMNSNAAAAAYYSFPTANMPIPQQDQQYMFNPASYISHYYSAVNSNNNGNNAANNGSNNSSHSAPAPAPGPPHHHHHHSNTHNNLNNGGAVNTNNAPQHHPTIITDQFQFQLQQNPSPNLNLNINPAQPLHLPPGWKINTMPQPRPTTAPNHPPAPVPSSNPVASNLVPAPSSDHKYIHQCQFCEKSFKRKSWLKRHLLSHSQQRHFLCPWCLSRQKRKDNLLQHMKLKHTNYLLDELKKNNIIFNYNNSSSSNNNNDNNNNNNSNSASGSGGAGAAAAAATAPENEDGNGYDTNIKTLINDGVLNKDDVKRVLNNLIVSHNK
# Assay: PBM E-score (8-mer binding enrichment) (E-score (-0.5 to 0.5)); higher = stronger / more preferred TF binding; most listed sequences are background and not binding sites
# Details: protein concentration: 200 nM; construct: GST-full length
# Method: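 Universal 'all 10-mer' protein binding microarrays (Agilent AMADID 015681) probed with GST-tagged S. cerevisiae TFs (full-length or DBD) made by in vitro transcription/translation (PURExpress), about 100-200 nM. Bound TF was detected with fluorescent anti-GST. Each ungapped 8-mer (which stands for itself and its reverse complement) is scored by the PBM enrichment score (E-score), a modified Wilcoxon-Mann-Whitney statistic from -0.5 to +0.5, computed with the Universal PBM Analysis Suite. Scale: above 0.35 generally sequence-specific binding.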
row,Sequence,PBM E-score
1,CAATGATC,-0.147
2,GGGCTACC,-0.337
3,CTGCGACA,-0.0745
4,CACACGGA,0.0661
5,ACCATAGC,-0.322
6,AAAAGCAC,-0.103
7,ACACGTTA,0.345
8,AAAAATTC,0.138
9,CACCTCCA,-0.138
10,CACGTGCG,0.206
11,ATTAGCCG,-0.128
12,CTTGTTGC,0.188
13,TAACAACA,0.314
14,AAATTTGC,0.00237
15,AAATACTA,0.0828
16,ATTGACAA,0.145
17,TATACCGA,-0.0353
18,CCAGCAAA,-0.216
19,AAGCCTGC,0.12
20,CACGTAAG,0.204
21,CCGCTGTC,-0.232
22,ACATTGTC,0.144
23,AAACCCAC,-0.0258
24,CGAGTCCC,-0.229
25,CAATAGGG,0.0283

row,Sequence,PBM E-score
1,ACCTAGCG,0.0407
2,AGGGGCGG,-0.279
3,ATAGCTGG,-0.242
4,CGTATGAC,0.146
5,CATGGGTA,0.0164
6,ATAATCAG,0.13
7,GAGGACCC,-0.265
8,GATGAAGC,-0.224
9,GGCTCGAA,0.00294
10,TCTACCCA,-0.077
11,GTCTGGTA,-0.209
12,AACGTTCA,-0.00282
13,ATCAAAAT,0.0437
14,GGTAGGAA,0.313
15,AATACTAA,0.00861
16,CCAAGAAA,0.0226
17,TGCACGCA,-0.0502
18,CATGCGTA,0.324
19,AGGGCATC,-0.163
20,CGCTTAAG,-0.0278
21,AAACAGAC,0.0793
22,GGTGAATA,-0.242
23,ACGGACTA,0.0015
24,CCGTCGCC,-0.133
25,ATCTGATC,0.00181

row,Sequence,PBM E-score
1,TAACCGAA,0.115
2,CGCTGATC,-0.159
3,AAATCCGA,-0.0221
4,CGTGGTAG,-0.0382
5,GTGACCTA,0.082
6,AGCTCAGG,-0.114
7,AGTTTTGG,0.0121
8,CCCCATAC,0.00082
9,CCTTGTAC,0.272
10,AAGCCGGC,-0.226
11,AGCGTATA,0.0388
12,ATATACTC,-0.0816
13,CACTATAA,0.103
14,CATCCAGG,-0.0983
15,GGAACCAC,0.0546
16,ACGCAGCT,0.0925
17,AGCAATTG,0.0402
18,CCAAGGTC,-0.222
19,GCGGTCTA,0.155
20,CCCTGAAG,-0.248
21,GACTTGAA,-0.135
22,TAATGTAA,0.354
23,AGCAGCCA,-0.121
24,AGAAACCC,0.0651
25,AGTCACCG,0.0455

row,Sequence,PBM E-score
1,CAAGAAAA,0.132
2,CAATGGAG,-0.116
3,TACCCGCA,-0.0947
4,AGAAAGCC,0.0698
5,CGTTCTAC,0.21
6,ACCCGCGG,-0.0296
7,CTCTCCTC,-0.284
8,GCTTACAA,0.197
9,AGCCTCGA,-0.0725
10,AAAGGGAT,0.0327
11,GATCGATC,-0.216
12,CACTCGAG,-0.185
13,GATGTGAC,-0.0219
14,CCTCCTCC,0.0258
15,CCTGGAGA,-0.0102
16,GACATGGA,0.167
17,CGGTGGAC,-0.174
18,ATGTACCA,0.04
19,GCCAGCCA,-0.257
20,CAACTACA,0.282
21,CCCTGGGA,-0.335
22,ATTACCAA,0.239
23,CCGCTACA,0.0172
24,AACATGCC,0.328
25,GCAAGTCC,-0.0926

row,Sequence,PBM E-score
1,CTTAGTGA,-0.151
2,AGACCATA,-0.0935
3,CGAGCCGA,-0.187
4,ATGACTCC,-0.199
5,CTCGGGCA,0.0219
6,GGTACCCA,0.00798
7,AAGGGCCG,-0.111
8,CCAGGAGG,-0.129
9,CAGGCCAG,-0.141
10,GATGGTTA,-0.00133
11,CAGACAAG,-0.125
12,AAATCGAA,-0.103
13,ATCCGAGG,-0.0907
14,AGGTTGCA,0.159
15,ATTAGAAG,-0.118
16,CAACAGAA,-0.0102
17,CATGTCAC,0.225
18,ATACTGAG,0.0691
19,TCCCCCGA,-0.341
20,AAAGGTAC,0.42
21,AATCGATG,0.15
22,CCAAAATA,0.0955
23,ATGCGAAG,-0.00373
24,GAAAATAC,-0.0197
25,CGCCGAGC,-0.194

row,Sequence,PBM E-score
1,CCTTGTGC,0.117
2,GAGGTTAC,0.114
3,TGCCCCAA,-0.0519
4,CGTAGACA,0.0145
5,ATTCAGCA,0.00103
6,GGAGCCCC,-0.158
7,CAAAGAGC,-0.172
8,CTTTTCAA,0.0982
9,CTGGTGGA,-0.0967
10,GGCGCCCA,-0.109
11,CCGTAAAG,0.041
12,AAATCATG,0.192
13,AAAGGGAA,0.0778
14,CTAAATGC,-0.101
15,GGGGGAAA,-0.3
16,CGGGGTTC,-0.305
17,CAAATACG,0.095
18,AACGAATG,0.0901
19,CAGTATAC,0.00052
20,CTCAACTC,-0.173
21,CCGGTCAC,-0.221
22,AGAAACTC,-0.0763
23,CCAACGGA,-0.26
24,ACCGCGTA,0.28
25,AACGATCT,-0.111

row,Sequence,PBM E-score
1,ATACAGGA,0.173
2,GCTACTCA,-0.175
3,AGCGCACT,-0.288
4,ACCATCGG,-0.284
5,CGAAGTGA,-0.0597
6,ACAAGTGA,0.103
7,CACTAACC,0.0279
8,GACACCCC,-0.251
9,AGGACAGC,-0.28
10,AGCGCGCC,-0.0957
11,ATGAGCAA,-0.0849
12,AAGACGAT,-0.0375
13,GCGTACTA,0.199
14,ACTGTTAG,-0.0936
15,AGTCTACC,-0.233
16,GCTCCGCC,-0.238
17,AGGGACCA,-0.201
18,GCATAGAC,-0.0664
19,AGAAACAT,0.233
20,ACGTTCGG,-0.256
21,GCACGAGC,-0.142
22,ACCCTGCC,-0.333
